{"source": "PubChem BioAssay (NCI)", "test_in_all_cases": "inhibition of tumour cell growth, NCI panel, 48 h", "key": {"SR leukemia": {"system": "SR leukemia"}, "CCRF-CEM leukemia": {"system": "CCRF-CEM leukemia"}, "NCI-H226 lung": {"system": "NCI-H226 lung"}, "NCI-H23 lung": {"system": "NCI-H23 lung"}, "HOP-92 NSCLC": {"system": "HOP-92 NSCLC"}, "UACC-257 melanoma": {"system": "UACC-257 melanoma"}}, "note": "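Protocol summary: plate cells (96-well), add compound at 5 concentrations, incubate 48 h, interpolate endpoints linearly. GI50 marks 50% less growth. Definition used: TGI = concentration required for complete inhibition of growth.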 Active and inactive are the calls of the source."}
{"smiles": "COc1ccccc1Oc1nccc(-c2c(-c3ccc(F)cc3)ncn2C2CCNCC2)n1", "values": [{"measurement": "GI50", "setting": "SR leukemia", "value": "inactive"}, {"measurement": "TGI", "setting": "SR leukemia", "value": 18.7, "unit": "µM"}, {"measurement": "GI50", "setting": "CCRF-CEM leukemia", "value": "> 25", "unit": "µM"}, {"measurement": "TGI", "setting": "CCRF-CEM leukemia", "value": "> 25", "unit": "µM"}, {"measurement": "GI50", "setting": "NCI-H226 lung", "value": "inactive"}, {"measurement": "TGI", "setting": "NCI-H226 lung", "value": "> 25", "unit": "µM"}, {"measurement": "GI50", "setting": "NCI-H23 lung", "value": "> 25", "unit": "µM"}, {"measurement": "TGI", "setting": "NCI-H23 lung", "value": "> 25", "unit": "µM"}, {"measurement": "GI50", "setting": "HOP-92 NSCLC", "value": "inactive"}, {"measurement": "TGI", "setting": "HOP-92 NSCLC", "value": "> 25", "unit": "µM"}, {"measurement": "GI50", "setting": "UACC-257 melanoma", "value": "inactive"}, {"measurement": "TGI", "setting": "UACC-257 melanoma", "value": "> 25", "unit": "µM"}]}
